Test results as given in PubChem BioAssay AID488969 (Vanderbilt High Throughput Screening Facility, 2010).
The full ranking holds about 110,000 compounds; the median of “z-score” is about -0.1, and the highest 2% start at about 2. The list shows a part of the results.

The compounds below were run against Metabotropic glutamate receptor 8 (Rattus norvegicus) (UniProt P70579) (assay: mGluR8 Gi/Go-coupled signaling modulation – cell-based, rat, thallium flux, HTS, primary screen (AID 488969)). Conditions: HEK293 rat mGluR8, GIRK (G protein-gated inwardly rectifying potassium channel) thallium flux, FluoZin2; at 10 µM; stronger effect = higher value; submaximal glutamate (EC20) added with thallium.
Sequence of UniProt P70579 (P70579 whole entry, looked up): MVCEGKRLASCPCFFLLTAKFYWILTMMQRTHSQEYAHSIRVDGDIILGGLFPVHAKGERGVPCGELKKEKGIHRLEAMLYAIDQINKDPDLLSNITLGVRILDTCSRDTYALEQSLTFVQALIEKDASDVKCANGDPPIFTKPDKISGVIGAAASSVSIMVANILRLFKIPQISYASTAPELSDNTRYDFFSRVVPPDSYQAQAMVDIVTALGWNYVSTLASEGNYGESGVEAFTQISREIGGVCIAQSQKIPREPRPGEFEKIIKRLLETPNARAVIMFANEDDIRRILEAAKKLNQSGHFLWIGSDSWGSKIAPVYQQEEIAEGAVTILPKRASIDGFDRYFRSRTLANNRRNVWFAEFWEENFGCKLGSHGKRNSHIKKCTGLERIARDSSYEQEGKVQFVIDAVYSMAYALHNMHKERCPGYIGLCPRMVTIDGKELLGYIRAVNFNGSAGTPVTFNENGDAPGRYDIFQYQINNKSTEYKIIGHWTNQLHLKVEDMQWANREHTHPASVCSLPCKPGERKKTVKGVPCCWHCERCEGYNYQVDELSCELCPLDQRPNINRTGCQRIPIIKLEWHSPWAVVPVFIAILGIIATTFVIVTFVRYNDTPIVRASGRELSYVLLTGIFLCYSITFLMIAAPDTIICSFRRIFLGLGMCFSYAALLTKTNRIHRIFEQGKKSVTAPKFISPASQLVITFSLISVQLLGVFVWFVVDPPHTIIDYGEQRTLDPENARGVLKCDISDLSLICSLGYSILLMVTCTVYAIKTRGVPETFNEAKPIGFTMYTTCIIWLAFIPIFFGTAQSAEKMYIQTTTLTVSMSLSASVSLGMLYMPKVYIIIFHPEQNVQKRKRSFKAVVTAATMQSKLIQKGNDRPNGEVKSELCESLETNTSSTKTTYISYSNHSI

SMILES | z-score
O=C(Cc1c(O)c2ccccc2[nH]c1=O)NCc1ccccc1 | -0.314
COCCNC(=O)C1CC(=O)N(C2CCCCC2)C1 (stereo unspecified) | 0.736
CCCC1=NN(c2ccc([N+](=O)[O-])cc2)C(=O)/C1=C/N(C)C | -2.2
CC(=O)OC1COC(N2CCc3cc(Br)c([N+](=O)[O-])cc32)C(OC(C)=O)C1OC(C)=O (stereo unspecified) | -0.0187
CCc1nc(NCC2CCCO2)c2oc3ccccc3c2n1 (stereo unspecified) | 0.138
CC1(O)CC(=O)N(c2ccccc2)O1 (stereo unspecified) | -0.00398
CCCn1c(-c2ccc(OC)cc2)nc2c(=O)n(C)c(=O)[nH]c21 | -0.354
CCCCNC(=O)c1onc(CSc2ccccc2CC)c1C(=O)O | -0.361
O=C(CSc1ccccc1C(=O)NCc1ccccc1)NC12CC3CC(CC(C3)C1)C2 | -0.189
O=c1[nH]cnc2c([N+](=O)[O-])cccc12 | -0.108
COc1ccccc1N1CCN(C(=O)CSc2nc(-c3ccccc3)cc(=O)[nH]2)CC1 | -0.594
O=C(CSc1nc2ccccc2[nH]1)N1CCN(c2ccc(F)cc2)CC1 | -0.216
CC(=O)Nc1ccc(NC(=O)CSCc2cnn(-c3ccccc3)c2-n2cccc2)cc1 | -0.225
C=CCNC(=O)C1CC(=O)N(c2ccc(C)cc2)C1 (stereo unspecified) | 0.146
Cc1cccc(NC(=O)CC2Nc3cccc4cccc(c34)NC2=O)c1 (stereo unspecified) | -0.127
N#CC1=C(N)SC(N)=C(C#N)C1c1ccc([N+](=O)[O-])cc1 | -0.183
CCOc1ccc(C(=O)N/N=C/c2cc(Cl)ccc2[N+](=O)[O-])cc1 | -0.183
O=C(Oc1ccc2c(=O)c(Cl)coc2c1)c1ccncc1 | -0.0163
Cc1ccccc1Cn1c(=N)n(CC(=O)c2ccco2)c2ccccc21 | 2.17

SMILES | z-score
NNc1nc(NCc2ccccc2)nc(N2CCOCC2)n1 | 0.747
COCC(=O)N(C)c1nnc(-c2ccc([N+](=O)[O-])cc2)s1 | 0.146
CCOC(=O)COc1ccc(S(=O)(=O)NCCC2=CCCCC2)cc1 | -0.61
CCC(=O)N1CCC(c2ccc(OC)cc2)=N1 | -0.0561
COc1ccc(OC)c2sc(NC(=O)c3ccc(S(=O)(=O)N4CCOCC4)cc3)nc12 | -0.091
[O-]/[N+](=C/c1ccc(F)cc1)c1ccc(Cl)cc1 | 0.577
Cc1c(NC(=O)Cn2nc(C(=O)O)c3ccccc3c2=O)c(=O)n(-c2ccccc2)n1C | -1.03
CC(C)NC(=O)NC(=O)COC(=O)Cc1ccsc1 | 0.506
NC(=O)c1cc(-c2ccccc2)nc(N2CCOCC2)n1 | -0.411
CCOC(=O)CNC(=O)C(=O)c1c(O)[nH]c2ccccc12 | 0.0297
O=C(NC(NC(=S)Nc1cc(Cl)ccc1Cl)C(Cl)(Cl)Cl)c1ccco1 (stereo unspecified) | 0.272
CC(C)OC(=O)c1nn2c(C(F)(F)F)cc(-c3ccco3)nc2c1Cl | -0.261
CCOc1ccccc1N(CC(=O)NC1CCCCC1)C(=O)CNC(=O)c1ccco1 | -1.38
Cc1ccc(OCCSc2nnc(-c3ccncc3)n2C)cc1 | -0.157
O=C(c1cccc(F)c1)N1CCN(C2CCCCC2)CC1 | -0.0609
O=C(CSCc1cnn(-c2ccccc2)c1-n1cccc1)NCc1ccc2c(c1)OCO2 | 0.533
CC(C)OC(=O)/C(C#N)=C/c1ccc(-c2ccc(SC(F)F)cc2)o1 | 0.111
CCCn1nnnc1NCc1ccc(N2CCCC2)cc1 | -0.208
O=C(CCn1cccc1)Nc1cccc(F)c1 | -0.319

SMILES | z-score
Cn1c(NCc2cccs2)nc2ccccc21 | 0.413
O=C1c2cccc3c([N+](=O)[O-])ccc(c23)C(=O)N1c1ccccn1 | -0.626
CS(=O)(=O)N(CC(=O)N1CCN(Cc2ccccc2)CC1)Cc1ccccc1 | 0.0771
O=C(O)C1CCCCN1S(=O)(=O)c1ccccc1 (stereo unspecified) | -0.157
CN1c2ccccc2N(C)C1(C)c1cccc2ccccc12 | -0.24
CCN=C1SC(CC(=O)Nc2ccc(N3CCOCC3)cc2)C(=O)N1CC (stereo unspecified) | 0.836
COc1ccc(CCN2CN(S(=O)(=O)c3ccc(OC)cc3)c3nc4ccccc4nc32)cc1 | 0.00814
CCCCCN1C2=NCCN2c2ccccc21 | 0.394
CCOC(=O)C1=C(CS(=O)(=O)c2ccccc2)NC(=O)NC1c1ccccc1OCC (stereo unspecified) | 1.31
CCOC(=O)CCSc1nc(C)cc(C(F)(F)F)c1C#N | 1.25
Cc1ccc(C(=O)CSc2nnc(-c3cccs3)n2C)o1 | -0.505
CC(=O)Nc1ccc(C(=O)Nc2ccc3c(c2)OCO3)cc1 | -0.414
O=C(CN1C(=O)C2C3C=CC(C3)C2C1=O)NCc1ccccc1 (stereo unspecified) | 0.384
COc1cc(-c2nc3c[n+](CC(=O)c4ccccc4)ccc3n2C)cc(OC)c1OC | -0.235
c1ccc(CN2CCN(c3nc(-c4ccccc4)nc4ccccc34)CC2)cc1 | -0.0494
CCc1c(O)nc(SCC(=O)N2CCOCC2)n(-c2ccccc2)c1=O | 0.116
CCOC(=O)c1c(-c2ccccc2)oc2ccc(O)c(CN(C)C)c12 | -0.204
CCN1CCN(CCCNC(=O)c2cn(CCOC)c(=O)c3c2c2ccccc2n3C)CC1 | 0.403
